A collection of fitness landscapes (doi:10.1126/science.1257360)
Some of the results follow.

B1: PhoQ; a variant is named by its letters at X, in order, P23837 (parent)
chain: MKKLLRLFFPLSLRVRFLLATAAVVLVLSLAYGMVALIGYSVSFDKTTFRLLRGESNLFYTLAKWENNKLHVELPENIDKQSPTMTLIYDENGQLLWAQRDVPWLMKMIQPDWLKSNGFHEIEADVNDTSLLLSGDHSIQQQLQEVREDDDDAEMTHSVAVNVYPATSRMPKLTIVVVDTIPVELKSSYMVWSWFIYVLSANLLLVIPLLWVAAWWSLRPIEALAKEVRELEEHNRELLNPATTRELTSLVRNLNRLLKSERERYDKYRTTLTDLTHSLKTPLXXLQXXLRSLRSEKMSVSDAEPVMLEQISRISQQIGYYLHRASMRGGTLLSRELHPVAPLLDNLTSALNKVYQRKGVNISLDISPEISFVGEQNDFVEVMGNVLDNACKYCLEFVEISARQTDEHLYIVVEDDGPGIPLSKREVIFDRGQRVDTLRPGQGVGLAVAREITEQYEGKIVAGESMLGGARMEVIFGRQHSAPKDE

Variants of: B1
Test: enrichment ratio after two sorts for PhoP signalling (ratio (wild type AVST 3.29)); higher = more functional
Details: with PhoP (E. coli)

Variant | enrichment ratio
YQMI | ≤ 0.25
MGFI | 7.16
YIFC | ≤ 0.25
NRRC | ≤ 0.25
FHCE | ≤ 0.25
KMHI | 3.39
VMSN | ≤ 0.25
LTFP | ≤ 0.25
QRKT | ≤ 0.25
PDLM | ≤ 0.25
LDMF | ≤ 0.25
YLHR | ≤ 0.25
LHRW | ≤ 0.25
KYHK | ≤ 0.25
PGKD | ≤ 0.25
VIGM | ≤ 0.25
NDFG | ≤ 0.25
EVPW | ≤ 0.25
VRGR | ≤ 0.25
YSQF | ≤ 0.25
EATN | ≤ 0.25
YWVK | ≤ 0.25
QNSF | ≤ 0.25
SWQG | ≤ 0.25

Variant | enrichment ratio
QSVT | ≤ 0.25
WRFN | ≤ 0.25
THVM | 9.68
INQM | ≤ 0.25
SVIQ | 0.663
IRKP | ≤ 0.25
SHPH | ≤ 0.25
LRTR | ≤ 0.25
MWAL | ≤ 0.25
RIDC | ≤ 0.25
RTLE | ≤ 0.25
RRAQ | ≤ 0.25
WSWD | ≤ 0.25
AGES | ≤ 0.25
EATH | ≤ 0.25
YASE | ≤ 0.25
LKIW | ≤ 0.25
GTQP | ≤ 0.25
MDRI | ≤ 0.25
YHYT | ≤ 0.25
TKQW | ≤ 0.25
LCGV | ≤ 0.25
MYIS | ≤ 0.25
IKCF | ≤ 0.25

Variant | enrichment ratio
LKQG | ≤ 0.25
TCHW | ≤ 0.25
LHDW | 1.04
DILA | ≤ 0.25
YDEM | ≤ 0.25
SPHF | ≤ 0.25
APEP | ≤ 0.25
MTCW | ≤ 0.25
NNVM | ≤ 0.25
DKVW | ≤ 0.25
LALP | ≤ 0.25
HMMF | ≤ 0.25
RSKC | ≤ 0.25
AICR | 11.2
GGQF | ≤ 0.25
ACCQ | 8.96
IDCL | ≤ 0.25
KQHN | ≤ 0.25
FGIR | ≤ 0.25
VPDR | ≤ 0.25
VIFE | ≤ 0.25
AWSM | ≤ 0.25
SLDR | ≤ 0.25
AHYH | ≤ 0.25

Variant | enrichment ratio
PGSD | ≤ 0.25
PTTK | ≤ 0.25
ELDG | ≤ 0.25
HLWY | ≤ 0.25
PILH | ≤ 0.25
VGGL | ≤ 0.25
WDIG | ≤ 0.25
LPPN | ≤ 0.25
NERY | ≤ 0.25
KQMH | ≤ 0.25
IKAN | ≤ 0.25
HEMK | ≤ 0.25
YKAP | ≤ 0.25
GEFC | ≤ 0.25
YTCH | 0.285
PWEL | ≤ 0.25
QKGF | ≤ 0.25
ADRR | ≤ 0.25
WMWT | ≤ 0.25
YCCA | ≤ 0.25
YMHL | ≤ 0.25
EDNS | ≤ 0.25
QCFA | ≤ 0.25
ETSR | ≤ 0.25

Variant | enrichment ratio
QQMI | ≤ 0.25
DVAG | ≤ 0.25
TVEA | ≤ 0.25
WLNF | ≤ 0.25
DCSI | ≤ 0.25
TQCK | 1.24
QSVP | ≤ 0.25
VEFF | ≤ 0.25
WQKM | ≤ 0.25
WTIV | ≤ 0.25
RSVG | ≤ 0.25
NMNC | ≤ 0.25
KDHN | ≤ 0.25
ARKW | ≤ 0.25
MKSD | ≤ 0.25
HEWY | ≤ 0.25
VCFW | ≤ 0.25
HMAC | ≤ 0.25
EVWG | ≤ 0.25
MFDA | ≤ 0.25
TDEF | ≤ 0.25
FLLA | ≤ 0.25
MREP | ≤ 0.25
WYWH | ≤ 0.25

Variant | enrichment ratio
NEFF | ≤ 0.25
VMNS | ≤ 0.25
HNRV | ≤ 0.25
HNVS | ≤ 0.25
CSLI | 0.428
PMGT | ≤ 0.25
WNFH | ≤ 0.25
YHSR | ≤ 0.25
AQIV | 9.59
MITY | ≤ 0.25
SFIC | 1.82
AAYH | ≤ 0.25
KDFK | ≤ 0.25
GQRS | ≤ 0.25
LPLD | ≤ 0.25
VKVV | ≤ 0.25
WRYQ | ≤ 0.25
RGVK | ≤ 0.25
WEWY | ≤ 0.25
FATM | ≤ 0.25
QDSW | ≤ 0.25
AADP | ≤ 0.25
LPAF | ≤ 0.25
MMRH | ≤ 0.25

Variant | enrichment ratio
NRGY | ≤ 0.25
EMSQ | ≤ 0.25
NFFH | ≤ 0.25
FLGN | ≤ 0.25
YATS | ≤ 0.25
QIYH | ≤ 0.25
CSSY | 17.5
VRLQ | ≤ 0.25
VRVR | ≤ 0.25
QHYC | ≤ 0.25
ALVK | 2.46
NCDI | ≤ 0.25
GVCP | ≤ 0.25
ETHV | ≤ 0.25
TLVN | ≤ 0.25
DVGR | 4.98
VSKR | ≤ 0.25
LNYS | ≤ 0.25
QLGM | 4.43
WPKE | ≤ 0.25
DQDM | ≤ 0.25
MNFL | 14.1
KDID | ≤ 0.25
NSIP | ≤ 0.25

Variant | enrichment ratio
PSSV | ≤ 0.25
IMVI | 0.337
IFNN | ≤ 0.25
PVDW | ≤ 0.25
KAQD | ≤ 0.25
PHKL | ≤ 0.25
LNMM | 1.77
SQNA | ≤ 0.25
YPGR | ≤ 0.25
GQKL | ≤ 0.25
GNIY | ≤ 0.25
FHDQ | ≤ 0.25
RHTV | ≤ 0.25
DRRT | 0.539
FAFH | ≤ 0.25
TVRC | ≤ 0.25
KIQN | ≤ 0.25
QMAY | ≤ 0.25
CVFN | ≤ 0.25
LDYD | ≤ 0.25
PCFC | ≤ 0.25
ASAE | 5.56
IKTY | ≤ 0.25
YKIV | ≤ 0.25

Variant | enrichment ratio
AITC | 19
SMFS | ≤ 0.25
DCAM | ≤ 0.25
VNLG | 1.63
DEQY | ≤ 0.25
DTNI | ≤ 0.25
AYAA | ≤ 0.25
HMPS | ≤ 0.25
SVNY | 0.873
FLKL | ≤ 0.25
FAYM | ≤ 0.25
NQTK | ≤ 0.25
QHCC | ≤ 0.25
ITWS | ≤ 0.25
QDTH | ≤ 0.25
KNLC | ≤ 0.25
NDNL | ≤ 0.25
ISKR | ≤ 0.25
HSRC | ≤ 0.25
SQLR | ≤ 0.25
WDLW | ≤ 0.25
EAEQ | ≤ 0.25
PHNL | ≤ 0.25
REGS | ≤ 0.25

Variant | enrichment ratio
KSCN | ≤ 0.25
ICLQ | 9.87
DYRK | ≤ 0.25
SWSA | ≤ 0.25
NLIN | ≤ 0.25
DGED | ≤ 0.25
YNRK | ≤ 0.25
WFWA | ≤ 0.25
EHVP | ≤ 0.25
GSMI | 1.27
WWTQ | ≤ 0.25
KLTK | ≤ 0.25
KSIH | ≤ 0.25
KNSD | ≤ 0.25
FPMH | ≤ 0.25
RYLT | ≤ 0.25
YIMC | 0.355
VANR | ≤ 0.25
FRKR | ≤ 0.25
QLNS | ≤ 0.25
ALFE | ≤ 0.25
FMPP | ≤ 0.25
DRLG | ≤ 0.25
HRYA | ≤ 0.25

Variant | enrichment ratio
INLW | ≤ 0.25
EINA | ≤ 0.25
ICNF | ≤ 0.25
WNVI | ≤ 0.25
LQWD | ≤ 0.25
QTPV | ≤ 0.25
TAYR | ≤ 0.25
WKFR | ≤ 0.25
RDWT | ≤ 0.25
IIVD | ≤ 0.25
ILFY | ≤ 0.25
TAKT | ≤ 0.25
HFFV | ≤ 0.25
YKEQ | ≤ 0.25
FNTP | ≤ 0.25
QPRS | ≤ 0.25
WCLD | ≤ 0.25
WMSG | ≤ 0.25
FELK | ≤ 0.25
QRQY | ≤ 0.25
HFDS | ≤ 0.25
KSRC | ≤ 0.25
TCDW | ≤ 0.25
MPRD | ≤ 0.25

Variant | enrichment ratio
SSLR | 0.256
RHQK | ≤ 0.25
PMAT | ≤ 0.25
LEFI | 2.43
EFNS | ≤ 0.25
QMHM | 28.3
SCKA | ≤ 0.25
PMLC | ≤ 0.25
IINC | ≤ 0.25
PGPT | ≤ 0.25
FPCA | ≤ 0.25
DDPM | ≤ 0.25
TRYF | ≤ 0.25
MKFC | ≤ 0.25
SNHY | ≤ 0.25
DSNR | ≤ 0.25
IKFG | ≤ 0.25
RKNA | ≤ 0.25
NSPV | ≤ 0.25
GQRC | ≤ 0.25
MERW | ≤ 0.25
RPHQ | ≤ 0.25
NFAR | ≤ 0.25
MPVA | ≤ 0.25

Variant | enrichment ratio
RIVY | ≤ 0.25
EDAQ | ≤ 0.25
RWPM | ≤ 0.25
LVCV | ≤ 0.25
ASKM | ≤ 0.25
FTCI | 1.01
KEYH | ≤ 0.25
SFHR | ≤ 0.25
YPCS | ≤ 0.25
LQII | ≤ 0.25
PRTY | ≤ 0.25
FINW | ≤ 0.25
YWRP | ≤ 0.25
GQHM | ≤ 0.25
RFWM | ≤ 0.25
DLPD | ≤ 0.25
ADVI | 8.19
GDKN | ≤ 0.25
